Measured values reported in PubChem BioAssay AID1030 (National Center for Advancing Translational Sciences (NCATS), 2008).
About 16,000 (7.3%) of roughly 220,000 compounds were called active. This list was built around the results that the source calls inconclusive (neither active nor inactive); the mix of calls is not that of the screen. Calls come from the whole dose curve; as a rule, active = well fitted inhibition curve with a large enough effect (not every such curve was filed as active); inconclusive = small, poorly fitted or top-dose-only effect, or another doubt; inactive = no such curve, though single readings can be large or run the other way. Potencies of inconclusive entries are left out as doubtful fits.

target: Aldehyde dehydrogenase 1A1 (Homo sapiens) (UniProt P00352); test: qHTS Assay for Inhibitors of Aldehyde Dehydrogenase 1 (ALDH1A1); conditions: Purified ALDH1A1, NADH fluorescence, propionaldehyde substrate; series mostly up to 75.3 µM; activity, negative = inhibition: at the top concentration;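 for activity, negative = inhibition: plate controls were no enzyme wells and a reference inhibitor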
Sequence of UniProt P00352 (P00352 whole entry, looked up): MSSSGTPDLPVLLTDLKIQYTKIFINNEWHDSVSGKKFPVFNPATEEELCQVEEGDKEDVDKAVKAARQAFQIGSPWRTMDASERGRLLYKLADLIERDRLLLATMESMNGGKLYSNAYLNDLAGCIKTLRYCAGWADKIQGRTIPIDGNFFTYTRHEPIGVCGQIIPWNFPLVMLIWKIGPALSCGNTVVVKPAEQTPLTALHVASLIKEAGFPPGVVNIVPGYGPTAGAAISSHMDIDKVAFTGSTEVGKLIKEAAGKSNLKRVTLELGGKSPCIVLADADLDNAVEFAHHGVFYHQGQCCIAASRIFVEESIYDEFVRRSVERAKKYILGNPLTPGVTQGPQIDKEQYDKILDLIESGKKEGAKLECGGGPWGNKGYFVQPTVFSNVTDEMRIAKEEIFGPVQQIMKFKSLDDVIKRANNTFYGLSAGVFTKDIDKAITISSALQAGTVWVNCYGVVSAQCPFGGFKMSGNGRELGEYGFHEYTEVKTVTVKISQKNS
Potency is the fitted concentration of half-maximal effect; tags give direction and shape of the fitted curve.

SMILES	Potency	activity, negative = inhibition
O=C(CCCCCN1C(=O)C2C3C=CC(C3)C2C1=O)Nc1nccs1 (stereo not given)	inconclusive [inhibitor, partial curve]	–
CN(C)S(=O)(=O)c1ccc(NC(=O)Cc2ccc(S(=O)(=O)N3CCOCC3)s2)cc1	–	inactive: -11.3%
CCCCCCn1c(-c2cccs2)n[nH]c1=S	inconclusive [inhibitor, partial curve]	–
Cc1ccc2[nH]c(=O)c(CN(CC3COCCO3)C(=O)Nc3ccccc3F)cc2c1 (stereo not given)	inconclusive [inhibitor, single point]	–
C=CCOc1cccc(NC(=O)c2ccccc2SC)c1	–	inactive: -8.26%
Cc1ccc(NC(=S)NCCSc2ccc(Cl)cc2)c(C)c1	inconclusive [inhibitor, full curve, poor fit]	–
CCCC(O)(CCC)C(=O)NN(C(=O)CCl)c1cccc(C)c1	active: 39.8 µM	–
CCOc1ccc(NC(=O)CSc2nnc(Cc3cccn3C)n2-c2ccc(F)cc2)cc1	inconclusive [inhibitor, partial curve]	–
Cc1ccc2c(c1)C(=O)C(=O)N2CC(=O)Nc1ccc(N2CCOCC2)cc1	active: 8.91 µM	–
Cc1ccc(CNC(=O)CCC2CCCN(C(=O)c3ccc4c(c3)OCO4)C2)o1 (stereo not given)	active: 15.8 µM	–
CCOc1ccc(OCc2ccc(C(=O)N3CCOCC3)cc2)cc1	active: 3.55 µM	–
Cc1ccc(/C=C(/C#N)C(=O)NC(C)c2ccccc2)o1 (stereo not given)	active: 14.1 µM	–
Cc1ccc(CSc2nc3[nH]ncc3c(=O)[nH]2)cc1	inconclusive [inhibitor, partial curve, poor fit]	–
O=Cc1ccccc1OCCOc1ccc([N+](=O)[O-])cc1	inconclusive [inhibitor, single point]	–
CC(=O)OC1CC(OC(C)=O)[C@]2(C)C(CC(=O)[C@]3(C)C2CC[C@@]2(C)C(C(=O)O)OC(=O)C4OC423)C1(C)C (stereo not given in full)	–	inactive: -0.119%
CN(C)S(=O)(=O)c1ccc(N2CCCC2)c(C(=O)Nc2nc3ccc(F)cc3s2)c1	inconclusive [inhibitor, single point]	–
Cc1ccc(C(=O)OCn2ncc(Cl)c(Cl)c2=O)cc1	active: 1.41 µM	–
O=C(CSc1nnc(C2CC2)n1Cc1ccccc1)c1cc2ccccc2o1	inconclusive [inhibitor, single point]	–
Cc1ccc(SCCC(=O)NCCSCc2ccco2)cc1	inconclusive [inhibitor, single point]	–
CCOC(=O)c1oc2ccccc2c1NC(=O)c1cccc(OC)c1	inconclusive [inhibitor, single point]	–
